# Measured values taken from the supplement of paper PMC7826260.
# The list shows a part of the results. Cleavage of a single-stranded DNA pool by Rep nickase domains was read by sequencing for 1 h at 37 °C with 3 µM enzyme; only the middle of the 90-letter strands is printed. The score is log2 (uncut reads / reads without enzyme); uncut sequences lie near 0, cut ones below; no hit call is given. Reads are scaled to the total; uncut strands gain when others are lost, and binding without cutting may add a little.
# Tested on: T1, Rep nickase domain of porcine circovirus 2
# T1 sequence (residues 2-116 of Rep, tag left off): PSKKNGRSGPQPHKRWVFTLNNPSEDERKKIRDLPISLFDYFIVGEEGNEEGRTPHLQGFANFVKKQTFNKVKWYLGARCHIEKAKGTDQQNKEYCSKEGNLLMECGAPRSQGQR
# Test: uncleaved DNA left, log2 of reads against the no-enzyme library (log2 ratio); higher = less cleavage (more negative = more Rep cleavage of the k-mer); sequences stand for … in CTCGTCCG…ACCGGAGA
# Description: (§1)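 A pool of 90-nt single-stranded DNAs with seven random bases just before the constant AC of the nick site (name = the seven bases) was cut by 3 µM recombinant His6-SUMO-tagged Rep nickase domain (300 nM DNA, 50 mM HEPES pH 8.0, 50 mM NaCl, 1 mM MnCl2, 1 h, 37 °C, three replicates). Uncut DNA was amplified and sequenced.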
row,Sequence,uncleaved DNA left (log2)
1,CAGCAGG,0.0801
2,GGCGATT,0.0759
3,TTGTAGG,0.118
4,ATCTCCT,-0.538
5,AATTTCT,-4.53
6,TTAGCTA,-0.0104
7,CTTCTGT,-0.0806
8,GTAAGCA,0.0328
9,GGATTTG,0.127
10,ACACGCG,0.127
11,TGTCCAC,-0.0896
12,CTATTGG,0.118
13,CTTGAAA,0.0297
14,GAATCGG,0.196
15,CTCAGCT,0.0345
16,ATCGTAG,0.366
17,AATGATA,-0.0824
18,GGCAAGG,0.184
19,AACCTGC,-0.116
20,GTCAGCT,0.0603

row,Sequence,uncleaved DNA left (log2)
1,TGGTCTC,-0.0912
2,CCATGGG,0.103
3,AGGGATG,0.125
4,ATGAATA,-0.00203
5,TGTGTTC,0.0236
6,CTGGTCG,0.0212
7,ATAGAAT,0.14
8,ATAAATA,0.0968
9,ATCTCGG,0.00882
10,GCATCAG,0.191
11,GAATCCT,-2.73
12,GCATCCA,0.0768
13,TGGAAAA,0.227
14,GTGGCAG,0.124
15,TAGCTGA,0.183
16,CTAATTC,-0.0729
17,TGAGTAT,0.1
18,CGGCCCT,-0.148
19,TTGGGCT,0.147
20,GCAGCGT,0.189

# Tested on: T2, Rep nickase domain of tomato golden mosaic virus
# T2 sequence (residues 1-124 of Rep, tag left off): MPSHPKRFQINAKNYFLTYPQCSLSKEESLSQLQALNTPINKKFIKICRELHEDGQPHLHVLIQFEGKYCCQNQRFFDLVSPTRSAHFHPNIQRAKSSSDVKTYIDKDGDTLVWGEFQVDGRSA
# Test: as above
# Description: as §1
row,Sequence,uncleaved DNA left (log2)
1,CAGCAGG,0.174
2,GGCGATT,0.0431
3,TTGTAGG,0.0364
4,ATCTCCT,-0.11
5,AATTTCT,-0.188
6,TTAGCTA,0.161
7,CTTCTGT,-0.164
8,GTAAGCA,0.0252
9,GGATTTG,-0.0102
10,ACACGCG,0.00044
11,TGTCCAC,-0.0409
12,CTATTGG,0.0448
13,CTTGAAA,0.0587
14,GAATCGG,0.252
15,CTCAGCT,-0.0943
16,ATCGTAG,0.0955
17,AATGATA,-0.0725
18,GGCAAGG,0.184
19,AACCTGC,-0.0391
20,GTCAGCT,0.0739

row,Sequence,uncleaved DNA left (log2)
1,TGGTCTC,-0.0349
2,CCATGGG,0.0132
3,AGGGATG,0.17
4,ATGAATA,0.0718
5,TGTGTTC,0.105
6,CTGGTCG,-0.173
7,ATAGAAT,0.121
8,ATAAATA,0.255
9,ATCTCGG,0.101
10,GCATCAG,-0.0025
11,GAATCCT,-1.65
12,GCATCCA,-0.00517
13,TGGAAAA,0.0964
14,GTGGCAG,0.0906
15,TAGCTGA,0.18
16,CTAATTC,-0.00775
17,TGAGTAT,0.0672
18,CGGCCCT,-0.0809
19,TTGGGCT,0.0407
20,GCAGCGT,-0.0137

# Tested on: T3, Rep nickase domain of tomato yellow leaf curl virus
# T3 sequence (residues 1-136 of Rep, tag left off): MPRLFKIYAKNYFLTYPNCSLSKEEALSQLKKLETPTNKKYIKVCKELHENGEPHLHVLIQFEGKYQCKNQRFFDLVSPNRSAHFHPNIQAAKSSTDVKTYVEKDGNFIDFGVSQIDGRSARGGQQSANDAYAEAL
# Test: as above
# Description: as §1
row,Sequence,uncleaved DNA left (log2)
1,CAGCAGG,0.0324
2,GGCGATT,0.0138
3,TTGTAGG,-0.0418
4,ATCTCCT,0.0178
5,AATTTCT,0.0588
6,TTAGCTA,-0.0237
7,CTTCTGT,-0.0639
8,GTAAGCA,0.105
9,GGATTTG,-0.0118
10,ACACGCG,0.12
11,TGTCCAC,0.0508
12,CTATTGG,0.0176
13,CTTGAAA,-0.122
14,GAATCGG,0.0847
15,CTCAGCT,-0.071
16,ATCGTAG,0.102
17,AATGATA,-0.177
18,GGCAAGG,0.0862
19,AACCTGC,-0.00702
20,GTCAGCT,0.0158

row,Sequence,uncleaved DNA left (log2)
1,TGGTCTC,0.0341
2,CCATGGG,0.0371
3,AGGGATG,-0.054
4,ATGAATA,-0.0428
5,TGTGTTC,0.125
6,CTGGTCG,-0.119
7,ATAGAAT,0.0542
8,ATAAATA,0.181
9,ATCTCGG,-0.102
10,GCATCAG,0.0384
11,GAATCCT,0.0412
12,GCATCCA,0.00985
13,TGGAAAA,0.0906
14,GTGGCAG,-0.0465
15,TAGCTGA,0.0131
16,CTAATTC,-0.0312
17,TGAGTAT,0.0675
18,CGGCCCT,0.0159
19,TTGGGCT,0.0189
20,GCAGCGT,0.0419

# Tested on: T4, Rep nickase domain of wheat dwarf virus
# T4 sequence (residues 1-137 of Rep, tag left off): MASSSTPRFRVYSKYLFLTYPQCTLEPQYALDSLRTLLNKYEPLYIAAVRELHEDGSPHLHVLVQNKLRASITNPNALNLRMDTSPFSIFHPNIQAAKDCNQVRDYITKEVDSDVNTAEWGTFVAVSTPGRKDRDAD
# Test: as above
# Description: as §1
row,Sequence,uncleaved DNA left (log2)
1,CAGCAGG,-0.0231
2,GGCGATT,0.00386
3,TTGTAGG,0.0521
4,ATCTCCT,-0.234
5,AATTTCT,-0.341
6,TTAGCTA,0.0135
7,CTTCTGT,-0.0809
8,GTAAGCA,0.00296
9,GGATTTG,0.00829
10,ACACGCG,0.0255
11,TGTCCAC,0.0307
12,CTATTGG,-0.0516
13,CTTGAAA,-0.0244
14,GAATCGG,0.16
15,CTCAGCT,-0.162
16,ATCGTAG,0.0308
17,AATGATA,-0.0883
18,GGCAAGG,0.184
19,AACCTGC,0.0008
20,GTCAGCT,0.0205

row,Sequence,uncleaved DNA left (log2)
1,TGGTCTC,0.104
2,CCATGGG,-0.0833
3,AGGGATG,0.107
4,ATGAATA,0.0364
5,TGTGTTC,0.108
6,CTGGTCG,-0.212
7,ATAGAAT,0.0749
8,ATAAATA,0.2
9,ATCTCGG,-0.000497
10,GCATCAG,-0.123
11,GAATCCT,-2.12
12,GCATCCA,0.0517
13,TGGAAAA,0.16
14,GTGGCAG,0.103
15,TAGCTGA,0.173
16,CTAATTC,0.022
17,TGAGTAT,0.0187
18,CGGCCCT,-0.0624
19,TTGGGCT,0.015
20,GCAGCGT,-0.0118
